From PubChem BioAssay (NCI)
Some structures have more than one record in an assay (separate samples or runs), and their calls can disagree.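 Testing used 96-well plates and a 48-hour single-concentration exposure. Example: -40 means 40% of the starting cells died.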 Not every entry of the source has a single result; some have several. This is not the full list of results. An entry can have further records. The calls were made as follows: active = growth percent below 10; inactive = the rest. The screen tested this drug many times, at its own concentration, as given; each value is one run. Marks such as (2×) stand for listed records that agree.

Legend:
Test in all cases: NCI-60 one-dose screen, 48 h (100 = growth as untreated, 0 = no growth, -100 = all killed)
[1] = system: CAKI-1 renal; conditions: 2.5 mM
[2] = system: A498 renal; conditions: 2.5 mM
[3] = system: CCRF-CEM leukemia; conditions: 2.5 mM; runs of 1991

## O=c1[nH]cc(F)c(=O)[nH]1
[1]; runs of 1997
  growth: active: -8.23, -1.66, -22.6, -28.5, 3.72, -50.2, -41.7, -32.6, -33.4, 5.09, -13.2, -52.9, -38, -6.46, 7.63, 0.231, -8.45, -1.04, -52.4, -31.2, -34.7, -8.33, -21.8, 1.27, -20.9, -28.8, 0.238, -35.6, -13.3, -46.8, 4.41, -7.04, -18, 1.08, -28.2, 4.13, -31.9% and inactive: 19.6, 98.5, 24.2, 10.6, 13.5, 34.4, 16.5, 19.5, 18.1%
[1]; runs of 1998
  growth: active: -37.9, -41.8, -23.9, -56.9, -40.2, -45.7, 1.95, -49, -4.08, -41.9, 2.95, -43.7, -21.2, -18.6, -2.68% and inactive: 30.3, 22.3, 25.2, 15, 11.1, 18.6, 44, 18.4%
[1]; runs of 1999
  growth: inactive: 61.7%, 24.4% and active: 5.04, 0.392, -14, -40, -84.8, -2.38, -64, -75.6, -83.8, 1.73, -3.17, -32.8, -97.5, -100, -90.4%
[1]; runs of 2000
  growth: active: 6.33%, -70.1% (2×), -72.2%
[2]; runs of 1991
  growth: inactive: 98.8, 12.1, 16.5, 35.3, 26.9% and active: -1.78, -18.5, -11.2 (2×), -27.5, -25, -6.21, -16.2, -16.5, -34.8, 5.09, -33.5, 3.37, -24.8%
[2]; runs of 1992
  growth: active: -0.878, -16.1, 1.19 (2×), -9.81, -33.5, -30, -9.94, 1.21, -22.6, -12.2, -15.7, -2.79, -17.8, 7.57, 4.47, -4.87, -6.6, 3.35, -12.9, -57.3, -22.1, -23.9, -7.19, -3.15, -3.46, -2.22, -2.19, 8.33, -44.7, -0.978, -4.05, -15.1, -31.5, -10.7, -66.6 (2×), -15.6, -1.88, -10.6, -30.2, -12.6, -33.3, -66.7, 0.291, -31.7, -42.4, -47.2 (2×), 0.991, 0, 6.24, -42.1, -56.2, -28.3, -62.2, -55.1, 2.47, -15.5, -4.12 (2×), -6.81, -67.1, -42.7, -57.7, -76.6, -25.3, -31.8, 2.44, -23.1, -32.9, -51.3, -54.7, -55, -20.2, -22.8, -33.1, -36.6, -22.9, -47.1, -70.9, -14.6 (2×), -13.4, -32.4, -44.2, 2.85, 3.34, -17, -34.2, -50.7, -14.5, -19.1% and inactive: 11.2, 21.3, 35.6, 22.2, 50.5, 13.5, 27.8, 64.4%
[2]; runs of 1993
  growth: active: -38.5, -62.5, -50.8, -20, -20.3 (2×), -39.1, -9.12, -3.92, -4.01, -14.8, -1.73, -16, -9.25, -47.8, -11.9, -41.4, 2.03, -43.8, 2.8, -29.9, 0.998, -31.3, -0.896, -37.2, -5.39% and inactive: 21.7, 42, 54.9, 14.8, 16.9, 23.4, 34.1%
[2]; runs of 1994
  growth: active: -43.8, -16.8, -2.71, -4.9, -48.4, -11.7, -52.6, -3.16, -11.3, -20.6, -26, -47.7, 1.85, -13.1, -62.5 (2×), -0.913, -17.5, -37.4, -8.71, -21, -28.1, 0, -61.1, -56.6, -16.4% and inactive: 20.1%
[2]; runs of 1995
  growth: active: -2.61, -38.5, -47.9, -49.4, -64.8, -38.3, -19.7, -29.9, -40.1, -10.4, -32, -48.4, -32.3, -21.8, -34.2, -23, -9.21, -46.1, -31.1, 8.19, -46, -75.7, -60.7, -4, 5.61, -66.5, -22.3, -23.2, -45.5, -64.3, -24.4, -78.7% and inactive: 12.4, 15.7, 13.8, 12.9, 22.6%
[2]; runs of 1996
  growth: active: 5.63, -24.3, -40.3, -18.5, -18.7, -16.9, -24.1, -34.9, -58, -61.7, -64.9, 1.78, -14.9, -8.32, 7.29, 5.86, 4.94, 9.14, -30.8 (2×), -12.4, 1.58, -41.3, -36.5, -14.2, -3.67, 8.81, 1.86, -36.8% and inactive: 10.9, 16, 54.4, 35, 38.8, 37.2, 20.4, 19.9, 21.4, 19.4%
[2]; runs of 1997
  growth: inactive: 37.5, 10.4, 36.1, 72.7, 47.4, 19, 22.5, 40.7, 44.5, 17.2% and active: -4.13, -100, -23.6, -18.4, -20, -31.4, -24.7, -49.9, -41.1, -7.14, -8.07, -26.2, -39.1, -1.61, -36.8, -52.3, -60.4, -22.3, -68, -48.5, -13.5, -7.72, -56.1, -62.4, -43.6, 6.51, -13.3, -27.3%
[2]; runs of 1998
  growth: active: -16.1, -27.9, -2.66, -31.2, -18.3, -18.1, -37.3, -13.3, -8.9, -30.1, -51.2, -31.6, -40.5, -53.8, -81.7, -73.7, -67.2% and inactive: 24.5%, 26.8%
[2]; runs of 1999
  growth: inactive: 62.8% and active: -14.1, -38.7, -42.1, -11.3, -100 (2×), -66.6, -33.7, -91, 0.554, -86.7, -61.6, -89, -73.5, -83.6%
[2]; runs of 2000
  growth: active: -93.7, -67.8, -68.5, -99.8%
[3]
  growth: inactive: 16.4, 23.4, 19.1, 22.6, 20.3, 23.9, 18.7, 76.7, 19.3, 21.2, 34.5, 23.2, 49.2, 20.6, 15.8, 31, 27.1, 39% and active: -4.34%, 5.91%
